The text below walks through data of the supplement of paper PMC9446081.

Each structure is given as a SMILES string. In all, about 39,000 compounds went through this assay and about 220 (0.56%) showed activity. The list shows a part of the results.
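Further: static incubation at 37 °C against the wild-type strain, values averaged over two biological replicates.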

The subject of this assay is Escherichia coli K-12 BW25113. Description: relative growth (OD600 normalised to plate interquartile mean) (fraction); higher = less growth inhibition, active = 0.2 or less. The conditions noted are these: 50 µM; LB; incubation time: overnight (16-24 h).
In the case of `C[C@@H]1CCCCO[C@H](CN(C)C(=O)c2ccccc2)[C@H](C)CN([C@@H](C)CO)C(=O)c2cc(NS(=O)(=O)c3cccs3)ccc2O1`, the relative growth was inactive: 0.946.

`COc1ccc2c3c(n(c2c1)C)[C@@H](CO)N(CC1CC1)C[C@]13CCN(CC1)S(=O)(=O)c1cn(cn1)C`: the relative growth was inactive: 0.994.

For `CCS(=O)(=O)N1CC[C@H]2[C@H](CC1)S(=O)(=O)CCN2C(=O)c1ccccc1`, the relative growth was inactive: 1.

Take `COc1cc([C@@H](O)[C@@H](CO[C@@H]2O[C@H](CO)[C@@H](O)[C@H](O)[C@H]2O)Oc2ccc(/C=C/CO)cc2OC)ccc1O`: the relative growth is inactive: 0.99.

In the case of `COc1ccc(S(=O)(=O)N(C)C[C@H]2Oc3cc(C#CC4CC4)ccc3S(=O)(=O)N([C@@H](C)CO)C[C@@H]2C)cc1`, the relative growth was inactive: 1.04.

With `Cl.NC1=NCC2c3ccccc3Cc3ccccc3N12` (stereo unspecified), the relative growth is inactive: 1.14.

As to `C[C@H](CO)N1C[C@H](C)[C@H](CN(C)Cc2ccc(F)cc2)Oc2ncc(C#Cc3cccnc3)cc2C1=O`, the relative growth is inactive: 0.989.

Consider `O=C(CN1C(=O)COCC1=O)N1CCOCC1`, for which the relative growth was inactive: 1.

Take `C[C@H]1CN([C@@H](C)CO)C(=O)c2cc(-c3ccc(C(=O)N(C)C)cc3)cnc2O[C@H]1CN(C)C(=O)C1CC1`: the relative growth was inactive: 0.973.

For `CCCC#Cc1ccc2c(c1)O[C@H](CN(C)S(=O)(=O)c1cccc(F)c1)[C@@H](C)CN([C@@H](C)CO)S2(=O)=O`, the relative growth was inactive: 1.

With `COc1ccc([Si](C)(C)[C@H]2[C@H](CC(=O)N3CCC[C@H]3CO)O[C@@]3(C(=O)N(Cc4ccc(N5CCCCC5=O)cc4)c4ccccc43)[C@@H]2C)cc1`, the relative growth is inactive: 1.01.

In the case of `O=C(C[C@H]1C=C[C@@H](NC(=O)Nc2ccc3c(c2)OCO3)[C@@H](CO)O1)NCCCN1CCOCC1`, the relative growth was inactive: 0.992.

On to `C[C@@H]1CCCCO[C@H](CN(C)S(=O)(=O)c2cccs2)[C@H](C)CN([C@@H](C)CO)C(=O)c2cc(NC(=O)CCC(F)(F)F)ccc2O1`, for which the relative growth was inactive: 0.924.

As to `CS(=O)(=O)N1C[C@H](O)COC[C@@H]2O[C@@H](CC(=O)NCCc3ccncc3)CC[C@H]21`, the relative growth was inactive: 0.96.

For `O=C(O)c1csc2c1CCCCC2`, the relative growth was inactive: 1.01.

Consider `COc1ccccc1-c1cccc(-c2nc(C(=O)N3CCCCC3)cc3c2[C@@H](CCO)N([S@@](=O)C(C)(C)C)C3)c1`, for which the relative growth is inactive: 1.02.

`COc1ccc(NC(=O)Nc2ccc3c(c2)C(=O)N([C@@H](C)CO)C[C@H](C)[C@@H](CN(C)S(C)(=O)=O)O3)cc1`: the relative growth is inactive: 1.03.

On to `CCCC#Cc1cnc2c(c1)C(=O)N([C@H](C)CO)C[C@@H](C)[C@H](CN(C)S(=O)(=O)c1cccc(OC)c1)O2`, for which the relative growth was inactive: 1.01.

As to `C[C@@H]1CCCCO[C@@H](CN(C)C(=O)Nc2ccc(C(F)(F)F)cc2)[C@@H](C)CN([C@H](C)CO)C(=O)c2cc(NS(=O)(=O)c3ccc(Cl)cc3)ccc2O1`, the relative growth was inactive: 0.987.

In the case of `CS(=O)(=O)N1CCn2cc(Cn3cncn3)nc2C1`, the relative growth was inactive: 0.985.

For the compound `COc1ccc2c(O[C@H]3CCCC[C@@H]3OC)nccc2c1-n1ccnc1-c1c[nH]c2c(N)c(F)cc(C#N)c12`, the relative growth is inactive: 0.997.

Take `Cc1noc(C)c1NC(=O)N(C)C[C@H]1Oc2c(NC(=O)C3CC3)cccc2C(=O)N([C@@H](C)CO)C[C@H]1C`: the relative growth is inactive: 1.03.

Regarding `CO[C@@H]1CN(C)C(=O)c2ccc(NC(=O)Nc3ccccc3F)cc2OC[C@@H](C)N(C(=O)Nc2ccccc2F)C[C@H]1C`, the relative growth is inactive: 1.01.

In the case of `Cc1ccc(Nc2c(F)cccc2Cl)c(CC(=O)O)c1`, the relative growth is inactive: 1.03.

In the case of `C[C@@H]1CN([C@H](C)CO)C(=O)c2cc(NC(=O)CCC(F)(F)F)ccc2O[C@@H](C)CCCCO[C@@H]1CN(C)S(=O)(=O)c1ccc(Cl)cc1`, the relative growth is inactive: 1.02.

For the compound `CCOc1nc2cccc(C(=O)O[C@@H](C)OC(=O)OC3CCCCC3)c2n1Cc1ccc(-c2ccccc2-c2nn[nH]n2)cc1`, the relative growth is inactive: 0.836.

Turning to `COc1cc2c(cc1OC)C(=O)C(CC1CCN(Cc3ccccc3)CC1)C2.Cl` (stereo unspecified), the relative growth was active: 0.0489.

On to `C[C@@H]1CN([C@@H](C)CO)S(=O)(=O)c2ccc(C#CC(C)(C)O)cc2O[C@@H]1CN(C)Cc1ccccc1`, for which the relative growth was inactive: 1.

With `Cc1nnc(C(C)C)n1[C@@H]1C[C@H]2CC[C@@H](C1)N2CC[C@H](NC(=O)C1CCC(F)(F)CC1)c1ccccc1`, the relative growth is inactive: 0.965.

For the compound `Cc1cc(C(=O)Nc2cccc3c2O[C@H](CN(C)S(=O)(=O)c2ccccc2)[C@@H](C)CN([C@H](C)CO)C3=O)n(C)n1`, the relative growth was inactive: 1.01.

With `Cc1noc(C)c1S(=O)(=O)Nc1ccc2c(c1)C(=O)N([C@@H](C)CO)C[C@@H](C)[C@H](CN(C)Cc1ccc3c(c1)OCO3)O2`, the relative growth is inactive: 0.992.

For `O=C(C[C@H]1CC[C@@H]2[C@H](COC[C@H](O)CN2S(=O)(=O)c2ccccc2F)O1)NCc1ccccc1F`, the relative growth was inactive: 1.01.

Turning to `O=C(OC1Cc2c(O)cc(O)cc2OC1c1ccc(O)c(O)c1)c1cc(O)c(O)c(O)c1` (stereo unspecified), the relative growth is inactive: 1.05.

With `C[C@H](CO)N1C[C@H](C)[C@@H](CN(C)C(=O)Nc2cccc(F)c2)Oc2ncc(C#CCN(C)C)cc2C1=O`, the relative growth was inactive: 1.05.

Turning to `C[C@@H]1CN([C@@H](C)CO)C(=O)c2cc(NC(=O)c3ccccc3)ccc2O[C@@H](C)CCCCO[C@@H]1CN(C)C(=O)NC1CCCCC1`, the relative growth is inactive: 1.

Take `CN1CCc2c(c3ccccc3n2Cc2ccccc2)C1`: the relative growth was inactive: 0.93.

Turning to `CNCC(O)C(O)C(O)C(O)CO.Cc1c(Nc2ncccc2C(=O)O)cccc1C(F)(F)F`, the relative growth is inactive: 1.04.

`COC(=O)C=Cc1cc(OC)c(OC)c(OC)c1`: the relative growth was inactive: 1.1.

For the compound `COc1ccc(NC(=O)N(C)C[C@@H]2Oc3cc(Br)ccc3S(=O)(=O)N([C@H](C)CO)C[C@H]2C)cc1`, the relative growth was inactive: 0.993.

Turning to `CNC[C@@H]1OCCCC[C@@H](C)Oc2ccc(NS(=O)(=O)c3cn(C)cn3)cc2C(=O)N([C@H](C)CO)C[C@@H]1C`, the relative growth was inactive: 0.92.

Consider `COc1cc(OC)c([C@@H]2c3c(n(C)c(=O)n(C)c3=O)N=C3COC(=O)C32)cc1OC` (stereo partly specified), for which the relative growth is inactive: 1.01.
